Measured values taken from the antibiotic and cytotoxicity screens of Wong et al. (2023).
The list shows a part of the results.

test system: HSkMC (human skeletal muscle cells); test: cytotoxicity call (relative viability < 0.9); settings: 10 µM

Structure (SMILES) | cytotoxicity call
C[C@@H]1CN([C@@H](C)CO)C(=O)Cc2cc(N(C)C)ccc2O[C@@H]1CN(C)S(=O)(=O)c1ccc(F)cc1 | inactive
CC(C)NC(=O)N(C)C[C@@H]1Oc2cc(C#Cc3cccc(F)c3)ccc2S(=O)(=O)N([C@@H](C)CO)C[C@H]1C | inactive
CCOC(=O)Cc1nnc(CC(=O)OCC)[nH]1 | inactive
C[C@@H]1CCCCO[C@H](CN(C)CC2CCCCC2)[C@@H](C)CN([C@H](C)CO)C(=O)c2cc(NS(=O)(=O)c3cccs3)ccc2O1 | inactive
Cc1ccc(S(=O)(=O)Nc2ccc3c(c2)C(=O)N([C@H](C)CO)C[C@H](C)[C@@H](CN(C)Cc2ccccc2)OCCCC[C@@H](C)O3)cc1 | inactive
C[C@@H]1CN([C@@H](C)CO)C(=O)Cc2cc(NS(=O)(=O)c3ccc(F)cc3)ccc2O[C@H]1CN(C)Cc1ccc(Cl)c(Cl)c1 | inactive
COc1ccc2c3c([nH]c2c1)[C@H](CO)N(C[C@]13CN(CCc2ccccc2)C1)C(=O)CN1CCOCC1 | inactive
C[C@@H]1CCCCO[C@@H](CN(C)Cc2ccccc2)[C@@H](C)CN([C@H](C)CO)C(=O)c2cc(NC(=O)C3CCCCC3)ccc2O1 | inactive
C[C@@H]1CN([C@@H](C)CO)C(=O)c2cc(NC(=O)Cc3cn(C)c4ccccc34)ccc2O[C@H]1CN(C)C(=O)Nc1ccc(C(F)(F)F)cc1 | inactive
C[C@@H]1CCCCO[C@H](CN(C)Cc2ccccc2)[C@H](C)CN([C@@H](C)CO)C(=O)c2cc(NC(=O)C3CCCCC3)ccc2O1 | inactive
C[C@@H]1CCCCO[C@@H](CN(C)S(=O)(=O)c2cccs2)[C@@H](C)CN([C@H](C)CO)C(=O)c2cc(NC(=O)C3CCCCC3)ccc2O1 | inactive
